Assay results: PubChem BioAssay (NCI)
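Interpolation was linear, between the two tested concentrations surrounding the appropriate level; five concentrations were tested over 48 hours in 96-well plates. Abbreviation: GI50, concentration required for 50% inhibition of growth. TGI is the concentration that stops growth completely.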

System: NCI-H322M lung
Assay: NCI-60 cell line screen, 48 h

Row | Compound | GI50 | TGI
1 | O=C(NCCN1CCCC1)c1ccc(-c2nc3ccc4[nH]ncc4c3c3c2CCCC3)cc1 | 0.959 µM | 4.09 µM
2 | Cc1nc(-c2cc3ccccc3oc2=O)ccc1C(=O)/C=C/c1ccccn1 | > 100 µM | > 100 µM
3 | O=c1c2cc(-c3ccc(F)cc3F)ccc2n(Nc2ccccc2)c(=O)n1-c1cccc(C(F)(F)F)c1 | 2.16 µM | 8.62 µM
